In the supplement of paper PMC10126150:
Sequences with one replicate were seen in a single cluster, so their values are uncertain.

test system: ATP; experiment: switch fluorescence ratio, 500 uM ATP over buffer (Cy3 cluster intensity, sum of 5 cycles each) (fold (ratio)); higher = stronger signal-on switching upon ATP binding; sequences stand for … in TCGTCGGCAGCGTCAGATGTGTATAAGAGACAGTTTTTTTTTTTTTTTTTTTTTTTTT…TC; conditions: aptamer strand: ATP DNA aptamer (quencher-CACCTGGGGGAGTATTGCGGAGGAAGG + anchor), 100 nM annealed; ATP concentration: 500 uM; one replicate
Procedure, shortened: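 The quencher-labelled ATP aptamer, at 100 nM, was annealed to Cy3-labelled switching-strand clusters on a modified Illumina MiSeq flow-cell. The clusters were imaged in selection buffer, then after 15 min with 500 uM ATP at 22 °C, and this buffer/ATP cycle ran five times with NaOH stripping and re-annealing between runs. Per-cluster fluorescence ratios, summed target-cycle over summed buffer-cycle Cy3 intensity, were averaged per switch-domain sequence. Clusters outside 100-1000 RFU were excluded.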
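Further: ATP exposure 15 min at 22 °C before imaging.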

| Sequence | switch fluorescence ratio |
| --- | --- |
| AGGAGGGTA | 1.01 |
| AGGAGGTAGC | 0.954 |
| AGGAGTACTC | 0.998 |
| AGGAGTAGGT | 0.968 |
| AGGAGTCCAG | 1.04 |
| AGGAGTCTAG | 0.976 |
| AGGATAAAAT | 0.991 |
| AGGATACCAT | 1.01 |
| AGGATACTTC | 0.977 |
| AGGATATGTG | 1.01 |
| AGGATCTGAT | 0.973 |
| AGGATGCGGC | 1.03 |
| AGGATGGCGT | 1.04 |
| AGGATGGCTC | 0.981 |
| AGGATGGGAT | 1.01 |
| AGGATGTTTC | 0.988 |
| AGGATTAAA | 0.969 |
| AGGATTGTCC | 0.996 |
| AGGATTTGGA | 1.04 |
| AGGCAACCTA | 1 |
| AGGCAATGAC | 1.86 |
| AGGCACACCA | 1.24 |
| AGGCACCCAT | 0.998 |
| AGGCACGGTA | 1.06 |
| AGGCACTACT | 1.18 |
| AGGCACTGAC | 1.11 |

| Sequence | switch fluorescence ratio |
| --- | --- |
| AGGCATGTTT | 0.968 |
| AGGCCAATGT | 1.01 |
| AGGCCATGTT | 1 |
| AGGCCCCGGA | 1.03 |
| AGGCCCGGCG | 1.03 |
| AGGCCGCATA | 2.41 |
| AGGCCTATAC | 1.1 |
| AGGCGACGGT | 0.989 |
| AGGCGCAAGT | 1.02 |
| AGGCGCACG | 0.981 |
| AGGCGGAAGC | 0.974 |
| AGGCGGGAGA | 1.03 |
| AGGCGGGAGC | 0.962 |
| AGGCGTAAAC | 1.07 |
| AGGCGTGGTA | 1.07 |
| AGGCGTTTCG | 1.03 |
| AGGCTAAGCT | 1.04 |
| AGGCTACGGA | 0.988 |
| AGGCTAGGGA | 0.954 |
| AGGCTATCGG | 0.977 |
| AGGCTATGGG | 0.996 |
| AGGCTATTT | 0.988 |
| AGGCTCTACA | 0.99 |
| AGGCTTAGCC | 0.991 |
| AGGCTTGTTG | 0.986 |
| AGGCTTTCGG | 0.999 |

| Sequence | switch fluorescence ratio |
| --- | --- |
| AGGCTTTTGG | 1.01 |
| AGGGAAACTT | 1.02 |
| AGGGAACCGA | 1.08 |
| AGGGAACGTG | 1.02 |
| AGGGAATCAT | 0.988 |
| AGGGAATCCG | 0.944 |
| AGGGAATCT | 1.01 |
| AGGGACAACG | 1.11 |
| AGGGACCCAA | 0.997 |
| AGGGACTAC | 1.06 |
| AGGGAGTCGT | 1.11 |
| AGGGATATTA | 0.987 |
| AGGGATCATC | 0.994 |
| AGGGATCGAT | 1.02 |
| AGGGCAACGT | 1 |
| AGGGCACCCT | 1.01 |
| AGGGCATCTA | 1 |
| AGGGCATGCG | 1 |
| AGGGCCCAGG | 1.04 |
| AGGGCCGATG | 1.01 |
| AGGGCCGGTG | 0.981 |
| AGGGCGACTT | 1.02 |
| AGGGCGTAAA | 1.02 |
| AGGGCGTATC | 1.08 |
| AGGGGAACGA | 0.963 |
| AGGGGACAGC | 1.01 |

| Sequence | switch fluorescence ratio |
| --- | --- |
| AGGGGACTGG | 0.996 |
| AGGGGAGCGA | 1.07 |
| AGGGGCTCCT | 0.978 |
| AGGGGGACAA | 0.947 |
| AGGGGGATGA | 1.01 |
| AGGGGGTCAT | 0.983 |
| AGGGGGTGT | 1.03 |
| AGGGTACACA | 0.968 |
| AGGGTCACGC | 1.01 |
| AGGGTCCCAC | 0.994 |
| AGGGTCCGTC | 0.983 |
| AGGGTCGGGT | 0.974 |
| AGGGTGAT | 1.01 |
| AGGGTGATCT | 0.971 |
| AGGGTGGTGG | 0.995 |
| AGGGTTCGTC | 1.04 |
| AGGGTTGCCC | 1.03 |
| AGGGTTTAG | 1.01 |
| AGGTAACCCT | 1.02 |
| AGGTAATGCT | 1.06 |
| AGGTACACG | 0.958 |
| AGGTACTGAC | 1.22 |
| AGGTAGACGG | 0.998 |
| AGGTAGAGG | 1.05 |
| AGGTAGCGAT | 1.15 |
| AGGTAGCGTA | 0.969 |

| Sequence | switch fluorescence ratio |
| --- | --- |
| AGGTAGGCCC | 0.993 |
| AGGTAGGTCG | 0.906 |
| AGGTAGTCAC | 1.03 |
| AGGTATGAGG | 0.993 |
| AGGTATGATC | 1.01 |
| AGGTATTT | 1.02 |
| AGGTCATTGC | 0.994 |
| AGGTCCCCTT | 1.02 |
| AGGTCCGGCA | 1.04 |
| AGGTCCTATT | 0.986 |
| AGGTCGAAGA | 0.932 |
| AGGTCGGACG | 0.986 |
| AGGTCGGGGT | 0.992 |
| AGGTCTAAGT | 0.985 |
| AGGTCTACGG | 1.02 |
| AGGTCTAGGA | 1.09 |
| AGGTCTCAGC | 0.997 |
| AGGTGAATGT | 1.02 |
| AGGTGACAA | 0.997 |
| AGGTGAGCCC | 0.928 |
| AGGTGCGTGC | 1.01 |
| AGGTGGCCTA | 0.971 |
| AGGTGGCTGT | 0.958 |
| AGGTGGTATA | 1.02 |
| AGGTGTAGCT | 0.96 |
| AGGTGTCCAG | 1.03 |

| Sequence | switch fluorescence ratio |
| --- | --- |
| AGGTTAACCC | 1.01 |
| AGGTTACGGA | 0.97 |
| AGGTTATCTT | 0.998 |
| AGGTTCATGA | 1.02 |
| AGGTTCCTC | 1.07 |
| AGGTTCGCGG | 0.946 |
| AGGTTCGGTT | 0.977 |
| AGGTTGGCGA | 1.02 |
| AGGTTTCACG | 0.994 |
| AGGTTTG | 0.975 |
| AGGTTTTAGC | 1.04 |
| AGTAAAAAGA | 0.981 |
| AGTAAAACAG | 1.03 |
| AGTAAACGAC | 1.04 |
| AGTAAAGAAC | 1.06 |
| AGTAACCGAA | 1.01 |
| AGTAACGTAT | 1.03 |
| AGTAAGCAGA | 1.02 |
| AGTAATAGAG | 0.968 |
| AGTAATGGTC | 1.1 |
| AGTAATTTAG | 1.04 |
| AGTACAGTAC | 1.05 |
| AGTACCACC | 1.19 |
